First the molecules themselves.
B1: GCCCCCA (DNA:RNA)
RNA: GGGAGACCGGAAUUCAGAUUGUCCGCCCCCAUUAAAUCCCGUCGUAGCCACCA
DNA 1: CAATCTGAATTCCGGTCTCCC
DNA 2: TGGTGGCTACGACGGGATT
B2: GCAGUCC (DNA:RNA)
RNA: B1 RNA with C27A, C28G, C29U, A31C
DNA 1: CAATCTGAATTCCGGTCTCCC
DNA 2: TGGTGGCTACGACGGGATT
B3: UCUAGUU (DNA:RNA)
RNA: B1 RNA with G25U, C27U, C28A, C29G, C30U, A31U
DNA 1: CAATCTGAATTCCGGTCTCCC
DNA 2: TGGTGGCTACGACGGGATT
B4: CCUUGUA (DNA:RNA)
RNA: B1 RNA with G25C, C27U, C28U, C29G, C30U
DNA 1: CAATCTGAATTCCGGTCTCCC
DNA 2: TGGTGGCTACGACGGGATT
B5: CCGAUUU (DNA:RNA)
RNA: B1 RNA with G25C, C27G, C28A, C29U, C30U, A31U
DNA 1: CAATCTGAATTCCGGTCTCCC
DNA 2: TGGTGGCTACGACGGGATT
B6: GAGUACU (DNA:RNA)
RNA: B1 RNA with C26A, C27G, C28U, C29A, A31U
DNA 1: CAATCTGAATTCCGGTCTCCC
DNA 2: TGGTGGCTACGACGGGATT
B7: UCGCCCC (DNA:RNA)
RNA: B1 RNA with G25U, C27G, A31C
DNA 1: CAATCTGAATTCCGGTCTCCC
DNA 2: TGGTGGCTACGACGGGATT
B8: CCUUAUA (DNA:RNA)
RNA: B1 RNA with G25C, C27U, C28U, C29A, C30U
DNA 1: CAATCTGAATTCCGGTCTCCC
DNA 2: TGGTGGCTACGACGGGATT
B9: ACGGACA (DNA:RNA)
RNA: B1 RNA with G25A, C27G, C28G, C29A
DNA 1: CAATCTGAATTCCGGTCTCCC
DNA 2: TGGTGGCTACGACGGGATT
B10: GGCCCGU (DNA:RNA)
RNA: B1 RNA with C26G, C30G, A31U
DNA 1: CAATCTGAATTCCGGTCTCCC
DNA 2: TGGTGGCTACGACGGGATT
B11: AUAACCA (DNA:RNA)
RNA: B1 RNA with G25A, C26U, C27A, C28A
DNA 1: CAATCTGAATTCCGGTCTCCC
DNA 2: TGGTGGCTACGACGGGATT
B12: AAGAACU (DNA:RNA)
RNA: B1 RNA with G25A, C26A, C27G, C28A, C29A, A31U
DNA 1: CAATCTGAATTCCGGTCTCCC
DNA 2: TGGTGGCTACGACGGGATT
B13: AAUACCA (DNA:RNA)
RNA: B1 RNA with G25A, C26A, C27U, C28A
DNA 1: CAATCTGAATTCCGGTCTCCC
DNA 2: TGGTGGCTACGACGGGATT
B14: CCGGGAG (DNA:RNA)
RNA: B1 RNA with G25C, C27G, C28G, C29G, C30A, A31G
DNA 1: CAATCTGAATTCCGGTCTCCC
DNA 2: TGGTGGCTACGACGGGATT
B15: UAAUUGG (DNA:RNA)
RNA: GGGAGACCGGAAUUCAGAUUGUCCUAAUUGGUUAAAUCCCGUCGUAGCCACCA
DNA 1: CAATCTGAATTCCGGTCTCCC
DNA 2: TGGTGGCTACGACGGGATT
B16: AAGCCUC (DNA:RNA)
RNA: B1 RNA with G25A, C26A, C27G, C30U, A31C
DNA 1: CAATCTGAATTCCGGTCTCCC
DNA 2: TGGTGGCTACGACGGGATT
B17: GUUUUGC (DNA:RNA)
RNA: B15 RNA with U25G, A26U, A27U, G31C
DNA 1: CAATCTGAATTCCGGTCTCCC
DNA 2: TGGTGGCTACGACGGGATT
B18: UAUGGAC (DNA:RNA)
RNA: B15 RNA with A27U, U28G, U29G, G30A, G31C
DNA 1: CAATCTGAATTCCGGTCTCCC
DNA 2: TGGTGGCTACGACGGGATT
B19: ACGUUUG (DNA:RNA)
RNA: B15 RNA with U25A, A26C, A27G, G30U
DNA 1: CAATCTGAATTCCGGTCTCCC
DNA 2: TGGTGGCTACGACGGGATT
B20: GACUCAU (DNA:RNA)
RNA: B1 RNA with C26A, C28U, C30A, A31U
DNA 1: CAATCTGAATTCCGGTCTCCC
DNA 2: TGGTGGCTACGACGGGATT
B21: UUAGUGC (DNA:RNA)
RNA: B15 RNA with A26U, U28G, G31C
DNA 1: CAATCTGAATTCCGGTCTCCC
DNA 2: TGGTGGCTACGACGGGATT
B22: GCUUCCG (DNA:RNA)
RNA: B1 RNA with C27U, C28U, A31G
DNA 1: CAATCTGAATTCCGGTCTCCC
DNA 2: TGGTGGCTACGACGGGATT
B23: GAUGGUU (DNA:RNA)
RNA: B1 RNA with C26A, C27U, C28G, C29G, C30U, A31U
DNA 1: CAATCTGAATTCCGGTCTCCC
DNA 2: TGGTGGCTACGACGGGATT
B24: CGGCCAA (DNA:RNA)
RNA: B1 RNA with G25C, C26G, C27G, C30A
DNA 1: CAATCTGAATTCCGGTCTCCC
DNA 2: TGGTGGCTACGACGGGATT
B25: CUGGGCG (DNA:RNA)
RNA: B1 RNA with G25C, C26U, C27G, C28G, C29G, A31G
DNA 1: CAATCTGAATTCCGGTCTCCC
DNA 2: TGGTGGCTACGACGGGATT
B26: CGGGUUG (DNA:RNA)
RNA: B15 RNA with U25C, A26G, A27G, U28G, G30U
DNA 1: CAATCTGAATTCCGGTCTCCC
DNA 2: TGGTGGCTACGACGGGATT
B27: UAUCUGU (DNA:RNA)
RNA: B15 RNA with A27U, U28C, G31U
DNA 1: CAATCTGAATTCCGGTCTCCC
DNA 2: TGGTGGCTACGACGGGATT
B28: GUUUGAU (DNA:RNA)
RNA: B1 RNA with C26U, C27U, C28U, C29G, C30A, A31U
DNA 1: CAATCTGAATTCCGGTCTCCC
DNA 2: TGGTGGCTACGACGGGATT
B29: AUUGCAG (DNA:RNA)
RNA: B1 RNA with G25A, C26U, C27U, C28G, C30A, A31G
DNA 1: CAATCTGAATTCCGGTCTCCC
DNA 2: TGGTGGCTACGACGGGATT
B30: UACUCCA (DNA:RNA)
RNA: B1 RNA with G25U, C26A, C28U
DNA 1: CAATCTGAATTCCGGTCTCCC
DNA 2: TGGTGGCTACGACGGGATT
B31: AUCCCCG (DNA:RNA)
RNA: B1 RNA with G25A, C26U, A31G
DNA 1: CAATCTGAATTCCGGTCTCCC
DNA 2: TGGTGGCTACGACGGGATT

Positions count from the first letter of the chain named. The list shows a part of the results.

This assay concerns the target T1, RBFOX1 RRM (Homo sapiens, UniProt Q9NWB1 109-208).
T1 sequence: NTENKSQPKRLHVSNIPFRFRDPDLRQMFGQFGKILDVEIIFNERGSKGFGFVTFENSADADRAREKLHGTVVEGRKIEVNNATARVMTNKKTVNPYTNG
The assay is described as follows: EMSA; HiTS-Eq, 1 nM pool, 10 min; buffer printed only for the single-RNA assays: 10 mM Tris pH 7.5, 150 mM NaCl, 3.4 mM EDTA, 0.001% NP-40, 30 C. The following applies: tags: His6 N-terminal (pET28a); label: 5' 32P. An outline of the steps:
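Purified wild-type or mutant RbFox RRM at increasing concentrations was equilibrated with 1 nM of 5′-radiolabelled RNA carrying 7 randomized nucleotides for 10 min in 50 µL. Unbound RNA was separated by 8% native PAGE and sequenced. Relative association constants came from read-count changes of each RNA species compared with the control reaction, normalised to the cognate motif.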
In general terms: In EMSA bound probe runs differently from free probe, usually more slowly.
Take B1: the binding signal was 0.00457 KA relative to UGCAUGU.

In the case of B2, the binding signal is 0.0101 KA relative to UGCAUGU.

Take B3: the binding signal is 0.00906 KA relative to UGCAUGU.

For B4, the binding signal was 0.0102 KA relative to UGCAUGU.

As for B5, the binding signal is 0.0105 KA relative to UGCAUGU.

Consider B6, for which the binding signal is 0.00657 KA relative to UGCAUGU.

In the case of B7, the binding signal is 0.00674 KA relative to UGCAUGU.

As for B8, the binding signal is 0.00117 KA relative to UGCAUGU.

Turning to B9, the binding signal was 0.000702 KA relative to UGCAUGU.

Consider B10, for which the binding signal is 0.0137 KA relative to UGCAUGU.

For the molecule B11, the binding signal is 0.000262 KA relative to UGCAUGU.

Consider B12, for which the binding signal is 0.00211 KA relative to UGCAUGU.

For the molecule B13, the binding signal is 0.00351 KA relative to UGCAUGU.

As for B14, the binding signal is 0.0126 KA relative to UGCAUGU.

As for B15, the binding signal was 0.0122 KA relative to UGCAUGU.

As to B16, the binding signal was 0.00785 KA relative to UGCAUGU.

As to B17, the binding signal was 0.0225 KA relative to UGCAUGU.

As to B18, the binding signal is 0.00325 KA relative to UGCAUGU.

B19: the binding signal was 0.021 KA relative to UGCAUGU.

On to B20, for which the binding signal was 0.00759 KA relative to UGCAUGU.

With B21, the binding signal was 0.0198 KA relative to UGCAUGU.

Take B22: the binding signal was 0.0121 KA relative to UGCAUGU.

Regarding B23, the binding signal was 0.0267 KA relative to UGCAUGU.

Take B24: the binding signal is 0.008 KA relative to UGCAUGU.

Regarding B25, the binding signal is 0.0239 KA relative to UGCAUGU.

Consider B26, for which the binding signal was 0.0491 KA relative to UGCAUGU.

For B27, the binding signal is 0.0154 KA relative to UGCAUGU.

As to B28, the binding signal was 0.0191 KA relative to UGCAUGU.

On to B29, for which the binding signal is 0.013 KA relative to UGCAUGU.

Regarding B30, the binding signal was 0.0027 KA relative to UGCAUGU.

With B31, the binding signal is 0.00284 KA relative to UGCAUGU.

The values above are taken from PMC9911399, “Two distinct binding modes provide the RNA-binding protein RbFox with extraordinary sequence specificity”.
